Data from PubChem BioAssay AID1645882 (National Center for Advancing Translational Sciences (NCATS), 2021).
In all, about 16,000 compounds went through this assay and about 120 (0.75%) were called active. Inconclusive results (about 4%) are left out. The call rests on the fitted dose curve; in most records, active means well fitted inhibition curve with a large enough effect; inconclusive means small, poorly fitted or top-dose-only effect; inactive means no such curve, though single readings can be large or run the other way. The list shows a part of the results.

Target: Rap guanine nucleotide exchange factor 3 (Homo sapiens) (UniProt O95398)
Experiment: Validation qHTS for antagonist of cAMP-regulated guanine nucleotide exchange factor 3 (EPAC1);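 further: plate controls were DMSO for no effect and ATA control for full effect; nearly all actives have a fitted effect of over 75% in size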
Conditions: EPAC1 Rap1B-BODIPY-GDP exchange, fluorescence; series mostly up to 150 µM; activity change, negative = inhibition: at the top concentration
Outline: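 Nucleotide exchange followed as fluorescence loss when BODIPY-GDP leaves Rap1B (480 nm excitation, 540 nm emission), read at 5 min intervals over 30 min. Reaction: 100 nM EPAC1, 250 nM RAP1B-BODIPY-GDP, 50 uM GDP; ATA and DMSO define normalization.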

Sequence of UniProt O95398 (O95398 whole entry, looked up): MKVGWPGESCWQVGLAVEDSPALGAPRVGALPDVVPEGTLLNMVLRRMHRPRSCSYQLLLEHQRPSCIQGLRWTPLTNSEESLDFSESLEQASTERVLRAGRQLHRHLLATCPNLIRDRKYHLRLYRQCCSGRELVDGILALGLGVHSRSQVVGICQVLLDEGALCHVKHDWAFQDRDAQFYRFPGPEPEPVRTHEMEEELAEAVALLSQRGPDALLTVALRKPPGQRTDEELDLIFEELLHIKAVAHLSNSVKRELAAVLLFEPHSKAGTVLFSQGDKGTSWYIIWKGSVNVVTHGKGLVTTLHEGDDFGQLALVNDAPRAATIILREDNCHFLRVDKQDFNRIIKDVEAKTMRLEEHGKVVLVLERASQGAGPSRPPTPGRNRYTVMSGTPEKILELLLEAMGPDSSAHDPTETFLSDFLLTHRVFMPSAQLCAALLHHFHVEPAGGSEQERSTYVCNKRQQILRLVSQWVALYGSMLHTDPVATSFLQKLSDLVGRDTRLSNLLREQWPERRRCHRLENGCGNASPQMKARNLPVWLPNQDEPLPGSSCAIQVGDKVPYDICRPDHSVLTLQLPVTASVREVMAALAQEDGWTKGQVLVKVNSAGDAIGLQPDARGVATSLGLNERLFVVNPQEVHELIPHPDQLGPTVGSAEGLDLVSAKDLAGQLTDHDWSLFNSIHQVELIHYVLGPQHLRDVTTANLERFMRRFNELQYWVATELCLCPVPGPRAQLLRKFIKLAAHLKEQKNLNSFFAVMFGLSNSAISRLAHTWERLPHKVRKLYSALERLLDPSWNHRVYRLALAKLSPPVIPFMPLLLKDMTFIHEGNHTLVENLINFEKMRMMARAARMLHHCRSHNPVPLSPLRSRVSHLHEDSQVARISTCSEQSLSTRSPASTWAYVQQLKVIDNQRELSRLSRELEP

Activity change, negative = inhibition, inactive:
NCCN 7.11%, C=CCSc1nnc(C2CCCN(Cc3ccccc3O)C2)n1C (centres undefined) -10.5%, COc1cccc(C2(CC(=O)N3CCCCC3CO)CC(=O)N(C)C2=O)c1 (centres undefined) 15.1%, COc1ccccc1-c1ccc(C(=O)N(C)CC2COCCO2)c(N2CCN(c3ccccc3F)CC2)n1 (centres undefined) -5.99%, CC(=O)N1CCC2(CC1)CN(c1ccccc1)C2 11.6%, CN(C)[C@@H]1C(=O)C(C(=O)NCN2CCCC2)=C(O)[C@@]2(O)C(=O)C3=C(O)c4c(O)cccc4[C@@](C)(O)C3C[C@@H]12 (some centres undefined) -3.33% [at 75.8 µM], CO/N=C(/C(=O)N[C@@H]1C(=O)N2C(C(=O)[O-])=C(C[n+]3ccn4ncccc43)CS[C@H]12)c1nsc(N)n1, CN(C)C(=O)c1ccc(-c2cncnc2N(C)Cc2ccco2)cc1 1.46%, COc1ccc(NC(=O)N2CCCC3(CCN(S(C)(=O)=O)CC3)C2)cc1 6.43%, CCCCC/C=C\C/C=C\CCCCCCCC(=O)NCC(=O)O 16.1% [at 15.3 µM], CS(=O)(=O)Nc1cccc(-c2nc(N3CCNCC3)c3ccccc3n2)c1 -24.4%, COc1ccccc1CN1CCCC2(CCN(S(=O)(=O)c3ccccc3)CC2)C1 12.6%, COc1cc2oc(-c3ccccc3)cc(=O)c2cc1OC 10.2%, CN(C)C(=O)c1ccc(-c2nc(Nc3ccccc3)c3ccccc3n2)cc1 -15%, CC(C)[C@@H]1C(=O)N(S(C)(=O)=O)[C@H]2CCN(C(=O)/C=C\CN3CCCCC3)[C@@H]12 13.9%, CC(=O)N1CCC2(CCN(Cc3nccs3)CC2)CC1 16.2%, COc1ccc(F)c(CN2CCOc3ccc(CN4CCCCC4CO)cc3C2)c1 (centres undefined) 6.5%, CC[C@H](C)C(=O)O[C@H]1C[C@@H](C)C=C2C=C[C@H](C)[C@H](CC[C@@H]3C[C@@H](O)CC(=O)O3)[C@H]21 -4.53% [at 201 µM], COc1cccc(Cn2c(=O)c(C)nc3cnc(Oc4ccccc4)nc32)c1 3.71%, CC(C)CN1CCCC2(CCN(S(=O)(=O)c3ccccc3)CC2)C1 7.25%, O=C(c1ccco1)N1CCC2(CCCN(c3cccc(-c4ccccc4)c3)C2)CC1 7.37%, CCCCCCCCCCCCCCCC(=O)OCC(COP(=O)(O)O)OC(=O)CCCCCCCCCCCCCCC (centres undefined) 24.9% [at 15.3 µM], CCOC(=O)c1c(C)cc(O)c(C=O)c1O 16.9%, COC(=O)C1=C(C)NC(C)=C(C(=O)OCCCN2CCC(c3ccccc3)(c3ccccc3)CC2)C1c1cccc([N+](=O)[O-])c1 (centres undefined), O=C(O)C[C@@H]1NC(=O)[C@H](Cc2ccccc2)NC1=O -5.9%, CCN(CC)CCOC(=O)c1ccc(N)cc1, COc1ccc(/C=c2\[nH]c(=O)/c(=C/c3ccc(OC)cc3)[nH]c2=O)cc1 15.9%, COc1ccccc1-c1ccc2ncnc(N3CCNCC3)c2c1 2.41%, Cc1noc(C)c1-c1ccc2ncnc(NCCN3CCOCC3)c2c1 2.89%, Cn1ccnc1 -6.7% [at 75.8 µM], Cc1cccc(C)c1NC(=O)CN(CC(=O)O)CC(=O)O 9.1%, CN1CCN(c2ncc3nc(-c4cn(C)c5ccccc45)c(=O)n(C[C@H]4CCCO4)c3n2)CC1 20.7%, Cc1cnc(CNc2ncnc3ccc(-c4ccccc4C)cc23)cn1 2.89%, CC1(c2ccccc2)OC(C(=O)O)=CC1=O (centres undefined) -21.9%, N#Cc1ccc[n+](CC(=O)c2ccc(F)cc2)c1 21.9%, CC(NC(=O)c1cc(F)ccc1F)c1nnc2n1CCN(Cc1ccc(-c3ccccc3)cc1)CC2 (centres undefined) -22.5%, COc1cc(C(=O)OC2CC[C@]3(C)C4CCC5[C@]6(O)CC(O)[C@]7(O)C(CN8CC(C)CCC8[C@]7(C)O)[C@]6(O)C[C@@]53O[C@]24O)cc(OC)c1OC (some centres undefined) 18.3%, Cc1cc(O)c(C(C)C)cc1Cl 17.2%, COc1cc(N(C)C)c(OC)cc1C=O -23.4%, C[C@H](O)CN(C)C 18.8%, O=C(c1cccc(F)c1)N1CCC2(CC1)CN(C(c1ccccc1)c1ccccc1)C2 -1.98%, N[C@H](C(=O)O)[C@@H]1CC(Cl)=NO1 20.4%, Cc1ncoc1C(=O)NCc1nc(-c2cccc(NC(=O)c3ccccn3)c2)oc1C 1.99%, O=C(C[C@H]1C(=O)N(CCc2ccccc2)C[C@@H]1Cc1ccccc1)Nc1ccccc1 -5.93%, COc1c(C(C)C)oc2cc3oc(=O)ccc3cc12 10.3%, Cc1noc(C)c1-c1nccc(-n2ccnc2)n1 29.1%, c1ccc2c(c1)sc[n+]2CCC1CCCCC1 6.15%, COc1ccc(-c2nc3cnc(N4CCOCC4)nc3n(Cc3cccc(OC)c3)c2=O)cc1 7.77%, CCCCNc1cc(C(=O)O)cc(S(N)(=O)=O)c1Oc1ccccc1, CN(CCO)C(=O)c1cn(C2CCCN(Cc3ccc4ccccc4c3)C2)nn1 (centres undefined) 13.8%, C[C@H](Cn1cnc2c(N)ncnc21)OCP(=O)(O)O 14%, CNC(=O)c1c(I)c(C(=O)NCC(=O)Nc2c(I)c(C(=O)O)c(I)c(C(=O)NCCO)c2I)c(I)c(N(C)C(C)=O)c1I -2.45%, O=S1(=O)CCOC[C@H](c2ccccc2)N1Cc1ccc(Cl)c(Cl)c1 -14.9%, CN1CCN(c2ncc3ncc(=O)n(CCc4ccccc4)c3n2)CC1 11%, CC(CN1CC(=O)NC(=O)C1)N1CC(=O)NC(=O)C1 (centres undefined) -14.3%, O=c1c(O)c(-c2ccc(O)cc2)oc2ccccc12 33.7%, Clc1ccccc1-c1ccc2ncnc(N3CCNCC3)c2c1 8.49%, CCOC(=O)[C@H](CCc1ccccc1)N[C@@H](C)C(=O)N(CC(=O)O)C1Cc2ccccc2C1 3.39%, Cc1noc(C)c1C(=O)N1CCC2(CCCN(Cc3ccc(C#N)cc3)C2)CC1 10.4%, O=C1O[C@@H]2[C@@H](O)[C@H](O)O[C@@H]2[C@H]1O -3.74%, COc1cc(CN2CCOc3ccc(CN4CCC(O)(c5cccnc5)CC4)cc3C2)ccc1F 8.96%, CCN(CC)c1ncnc2c1ncn2[C@@H]1O[C@@H](COP(=O)(O)OP(=O)(O)C(Br)(Br)P(=O)(O)O)[C@H](O)[C@H]1O -0.274%, O=C1CCN(Cc2ccccc2)S(=O)(=O)c2ccc(C(F)(F)F)cc21 0.214%, COc1cc(-c2coc3cc(O[C@H]4OC(CO)C(O)C(O)C4O)c(OC)c(O)c3c2=O)cc(O)c1OC (some centres undefined) 9.79%
